# Experimental data published in PubChem BioAssay AID2528 (National Center for Advancing Translational Sciences (NCATS), 2010).
# The campaign covered roughly 350,000 compounds. About 700 (0.2%) were called active. The inconclusive results got no clear call from the source; some entries with a clear call stand among them for comparison. The call rests on the fitted dose curve; in most records, active means well fitted inhibition curve with a large enough effect; inconclusive means small, poorly fitted or top-dose-only effect; inactive means flat fitted curve, though single readings scatter. Potencies of inconclusive entries are left out as doubtful fits.
# Molecular target: RecQ-like DNA helicase BLM (Homo sapiens) (UniProt P54132)
# Experiment: qHTS Assay for Inhibitors of Bloom's syndrome helicase (BLM); further: nearly all actives have a fitted effect of over 35% in size;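 on activity change, negative = inhibition: plate controls were vehicle for no effect and no enzyme for full effect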
# Settings: recombinant BLM DNA unwinding, fluorescence dequenching; series mostly up to 56.1 µM; activity change, negative = inhibition: at the top concentration
# Potency means the concentration at half of the fitted maximal effect; tags describe the fitted curve by direction and shape.
# Sequence of UniProt P54132 (P54132 whole entry, looked up): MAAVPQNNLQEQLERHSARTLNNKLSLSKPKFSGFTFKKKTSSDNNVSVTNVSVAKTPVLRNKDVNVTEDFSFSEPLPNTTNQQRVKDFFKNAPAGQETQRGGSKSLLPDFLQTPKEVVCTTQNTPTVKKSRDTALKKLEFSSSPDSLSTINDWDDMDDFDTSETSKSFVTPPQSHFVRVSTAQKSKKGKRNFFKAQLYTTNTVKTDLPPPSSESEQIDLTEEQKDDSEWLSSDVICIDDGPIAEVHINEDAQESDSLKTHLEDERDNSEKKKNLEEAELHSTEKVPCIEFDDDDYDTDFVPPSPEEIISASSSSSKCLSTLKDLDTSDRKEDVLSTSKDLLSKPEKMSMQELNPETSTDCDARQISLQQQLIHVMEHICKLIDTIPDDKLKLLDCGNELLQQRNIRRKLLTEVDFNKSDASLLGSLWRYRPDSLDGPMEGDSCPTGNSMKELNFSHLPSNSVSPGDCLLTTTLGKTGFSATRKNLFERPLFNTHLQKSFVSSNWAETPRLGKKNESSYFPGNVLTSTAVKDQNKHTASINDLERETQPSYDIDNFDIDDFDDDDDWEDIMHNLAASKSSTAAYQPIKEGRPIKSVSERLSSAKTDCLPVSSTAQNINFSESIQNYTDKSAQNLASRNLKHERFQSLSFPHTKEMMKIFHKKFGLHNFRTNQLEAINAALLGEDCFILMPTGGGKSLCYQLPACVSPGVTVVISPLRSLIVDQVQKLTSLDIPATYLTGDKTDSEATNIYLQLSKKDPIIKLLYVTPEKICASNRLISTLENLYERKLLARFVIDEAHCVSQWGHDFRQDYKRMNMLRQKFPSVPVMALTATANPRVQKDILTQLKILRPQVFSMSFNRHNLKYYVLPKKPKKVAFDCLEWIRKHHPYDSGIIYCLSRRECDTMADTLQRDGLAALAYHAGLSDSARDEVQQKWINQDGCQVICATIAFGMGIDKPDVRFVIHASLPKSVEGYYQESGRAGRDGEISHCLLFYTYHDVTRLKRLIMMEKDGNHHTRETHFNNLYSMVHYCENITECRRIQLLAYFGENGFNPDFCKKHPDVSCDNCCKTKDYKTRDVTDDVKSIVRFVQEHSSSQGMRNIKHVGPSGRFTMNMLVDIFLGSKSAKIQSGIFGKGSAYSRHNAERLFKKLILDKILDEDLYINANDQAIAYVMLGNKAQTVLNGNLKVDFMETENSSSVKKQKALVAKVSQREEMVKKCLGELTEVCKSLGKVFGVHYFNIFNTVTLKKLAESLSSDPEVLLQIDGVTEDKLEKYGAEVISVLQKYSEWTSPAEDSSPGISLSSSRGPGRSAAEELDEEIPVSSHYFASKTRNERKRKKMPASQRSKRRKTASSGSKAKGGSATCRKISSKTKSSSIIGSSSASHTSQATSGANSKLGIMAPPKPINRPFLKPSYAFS
Compound,Potency,"activity change, negative = inhibition"
CCN(CCO)c1nc(SC)nc2c1sc1nc(-c3ccco3)c3c(c12)CCC3,active: 10 µM,–
c1ccc2c(SCc3cn4ccccc4n3)nncc2c1,–,inactive: 0.576%
N=C1S/C(=C\c2ccco2)C(=O)N1c1ccc2c(c1)OCO2,"inconclusive [inhibitor, single point]",–
Cc1ccc2nc(-c3cc(NC(=O)COc4ccc(C)c(C)c4)ccc3Cl)oc2c1,–,inactive: 2.53%
[C-]#[N+]/C(C#N)=C\c1cc(C(C)(C)C)c(O)c(C(C)(C)C)c1,"inconclusive [inhibitor, partial curve]",–
CCOC(=O)/C=C(\C)Sc1cc(O)c2ccccc2c1O,"inconclusive [inhibitor, partial curve]",–
CCn1c(SC(C)C(=O)O)nc2sc3c(c2c1=O)CCC3 (stereo not given),–,inactive: -10%
CCc1cccc(NC(=O)c2ccc(Cn3c(=O)[nH]c4ccsc4c3=O)cc2)c1,"inconclusive [inhibitor, single point]",–
N#C/C(=C\c1ccc(O)c(O)c1)C(=O)NCCCCc1ccccc1,"inconclusive [inhibitor, partial curve]",–
CC(C)CC(NC(=O)c1cccc(Cl)c1)C(=O)O (stereo not given),"inconclusive [inhibitor, full curve, poor fit]",–
COc1ccc(-c2nnn(CC(=O)N(Cc3cccs3)C(C)C(=O)NCCC(C)C)n2)cc1OC (stereo not given),–,inactive: -0.645%
COc1ccc(-c2csc3ncnc(Oc4ccc5c(C)cc(=O)oc5c4)c23)cc1,"inconclusive [inhibitor, single point]",–
O[C@@](CCN1CCCC1)(c1ccccc1)C1CCCCC1,–,inactive: -8.4% [at 21.4 µM]
COc1cccc2c(=O)c3cccc(N)c3[nH]c12,"inconclusive [inhibitor, partial curve]",–
CC1(C)CC(C2N3CC4(C)CN2CC(C)(C3)C4=O)CCO1 (stereo not given),–,inactive: 0.463%
COc1ccc(N2Cc3cccc(C(=O)NC(C)CCc4ccco4)c3C2=O)cc1 (stereo not given),"inconclusive [inhibitor, partial curve]",–
O=C(COc1ccc(/C=N/NC(=O)c2ccc(O)cc2)cc1)Nc1cccc([N+](=O)[O-])c1,active: 17.8 µM,–
COc1cccc2c1NC(C(=O)O)C1CC=CC21 (stereo not given),active: 15.8 µM,–
Cc1cc(N=Nc2ccc(C)c(N=Nc3cc(C)c(N)cc3N)c2)c(N)cc1N,"inconclusive [inhibitor, single point]",–
O=c1cc2oc3cc(O)c(O)cc3c(-c3ccccc3[N+](=O)[O-])c-2cc1O,active: 0.708 µM,–
CCn1cc(C(=O)O)c(=O)c2cc(F)c(N/N=C/c3ccccc3[N+](=O)[O-])cc21,–,inactive: -10%
O=C(/C(=N/N=C/c1ccc(O)c(O)c1O)c1ccccc1)c1ccccc1,"inconclusive [inhibitor, partial curve]",–
COc1ccc(C2C(C#N)=C(N)Oc3c2c(C)nn3-c2ccccc2)cc1Cn1nc(C)c([N+](=O)[O-])c1C (stereo not given),"inconclusive [inhibitor, partial curve]",–
Cc1c(S(=O)(=O)O)oc2c1C(=O)C(=O)c1c-2ccc2c1CCCC2(C)C,active: 31.6 µM,–
CN(Cc1nccs1)C(=O)C1CCC(=O)N(CCc2ccc(Cl)cc2)C1 (stereo not given),–,inactive: -1.77%

Compound,Potency,"activity change, negative = inhibition"
CCn1cc(C(=O)NCCC(=O)OC)c(=O)c2cc3c(cc21)OCO3,–,inactive: -1.23%
CCNc1ccc2noc3c2c1C(=O)c1ccccc1-3,active: 25.1 µM,–
Cc1cnc(C(=O)Nc2nccs2)cn1,"inconclusive [inhibitor, single point]",–
COc1ccc2[nH]c3c(=O)n(/N=C/c4ccc(OC)c(CN5CCCC5)c4)c(C)nc3c2c1,"inconclusive [inhibitor, single point]",–
Cc1cc(C)c(C(=O)/C=C/c2ccco2)c(=O)[nH]1,–,inactive: 3.61%
Cc1c(CBr)[n+](=O)c2c(n1[O-])C(Br)CCC2Br (stereo not given),–,inactive: -2.29%
COC(=O)Nc1nc2ccc(-c3n[nH]c(=O)c4ccccc34)cc2[nH]1,"inconclusive [inhibitor, single point]",–
C=CCOC(=O)c1ccc(N2CCN(c3ccccc3)CC2)nc1,–,inactive: -10.9%
COc1ccc(-c2cc(C(F)(F)F)n3nc(N)nc3n2)cc1,–,inactive: -1.44%
CCOc1ccc(NC(=O)Cn2cc(C(=O)c3ccc(OCC)cc3)c(=O)c3cc4c(cc32)OCCO4)cc1,"inconclusive [inhibitor, partial curve]",–
COc1cccc(C(=O)Nc2cc(-c3ccccc3)nn2-c2ccccc2)c1,–,inactive: -9.26%
O=C(N/N=C/c1cc(Br)cc(Br)c1O)c1ccncc1,–,inactive: -8.15%
O=C(N=Nc1c(O)[nH]c2ccc([N+](=O)[O-])cc12)c1ccccc1Cl,"inconclusive [inhibitor, single point]",–
CC(C)CN1C(=O)c2ccc(C(=O)Nc3ccccc3C(=O)O)cc2C1=O,–,inactive: 0.211%
COc1ccc2c(c1)C(c1ccccc1OC)CC(=O)O2 (stereo not given),–,inactive: 1.05% [at 75.6 µM]
O=C1C(Cl)=C(N2CCCCC2)C(=O)C(Cl)=C1c1cnc(N2CCCCC2)s1,active: 14.1 µM,–
CC1(COc2ccc(CC3SC(=O)NC3=O)cc2)CCCCC1 (stereo not given),"inconclusive [inhibitor, single point]",–
CCN(CC)c1cc(Cl)c2nonc2c1N,–,inactive: -7.94%
Cc1cc(C)c(C(N)=O)c(Nc2cccc3ccccc23)n1,"inconclusive [inhibitor, partial curve]",–
O=c1[nH]c2cc3c(cc2cc1CN(Cc1cccnc1)Cc1nnnn1Cc1ccco1)OCCO3,"inconclusive [inhibitor, single point]",–
Cc1ccc(S(=O)(=O)N[C@H]2COC(=O)[C@H](C)COC(=O)[C@H](C)NC(=O)C/C=C\[C@H]2C)cc1,–,inactive: -4.39% [at 12.4 µM]
O=C1SC(SCc2ccccc2)=N/C1=C\c1ccc(C(=O)O)cc1,–,inactive: -5.54%
c1coc(CNc2nc3nonc3nc2NCc2ccco2)c1,"inconclusive [inhibitor, single point]",–
COc1cc(NC(=O)c2ccccc2)c(OC)cc1NC(=O)Cc1cccs1,active: 11.2 µM,–
O=C(OC1CCCCC1)c1ccc2c(c1)C1C=CCC1C(C(=O)O)N2 (stereo not given),active: 15.8 µM,–

Compound,Potency,"activity change, negative = inhibition"
C=CCN1C(=O)/C(=C\C=C2\N(C)c3ccccc3C2(C)C)SC1=S,"inconclusive [inhibitor, partial curve]",–
CN=C1C=CC(=C(c2ccc(N(C)C)cc2)c2ccc(N(C)C)cc2)C=C1,"inconclusive [inhibitor, single point]",–
CCSc1ccc(-c2ccco2)nn1,active: 10 µM,–
O=C(C1CCN(CCCc2ccccc2)CC1)N1CCCCC1,"inconclusive [inhibitor, single point]",–
COC(=O)CN1C(=O)S/C(=C/c2ccc(N3CCCCC3)o2)C1=O,–,inactive: -17%
Cc1cc(Br)ccc1SCC(=O)OCC(=O)NCc1ccco1,"inconclusive [inhibitor, single point]",–
COCCn1c(N)c(C(=O)NCC2CCCO2)c2nc3ccccc3nc21 (stereo not given),"inconclusive [inhibitor, single point]",–
CCCCCc1nnc(NC(=O)Cc2cccs2)s1,"inconclusive [inhibitor, partial curve]",–
CC(C)Nc1ccc(Nc2ccnc3cc4ccccc4cc23)cc1,"inconclusive [inhibitor, single point]",–
CCN1CCN(C(=O)c2ccc3c(c2)N(Cc2ccccc2)C(=O)c2ccccc2S3(=O)=O)CC1,inactive,–
Cc1c(-c2ccc(Cl)cc2)oc(=O)c2c(N)n(-c3ccccc3)nc12,"inconclusive [inhibitor, partial curve]",–
OCC1OC([S-])[C@H](O)C(O)C1O.[Au+] (stereo not given in full),"inconclusive [inhibitor, single point]",–
COc1ccc(N(/N=C2\Sc3ccccc3C2=O)C(C)=O)cc1,"inconclusive [inhibitor, single point]",–
Cc1noc(-c2ccc(CSCCC(=O)O)cc2)c1NC(=O)OC(C)c1ccccc1Cl (stereo not given),–,inactive: -0.494%
O=c1oc(-c2ccccc2)nc2sc3c(c12)CCC3,active: 14.1 µM,–
O=C(COc1ccccc1C(=O)N/N=C\c1ccc(O)c(O)c1)N/N=C/c1ccc(O)c(O)c1,active: 2 µM,–
Cc1cccc(Nc2nc(N)c([N+](=O)[O-])c(NCc3ccccc3)n2)c1,"inconclusive [inhibitor, single point]",–
COc1cccc(=O)c2c(C)n(-c3ccc(C(=O)O)cc3)c(C)c12,–,inactive: 1.64%
CC(=O)N(/N=C1\Sc2ccccc2C1=O)c1ccccc1C,"inconclusive [inhibitor, single point]",–
CCCC(=O)NC(=S)Nc1sc2c(c1C(N)=O)CCC2,–,inactive: -3.38%
Nc1nc(Nc2ccc(Cl)cc2)nc(NCc2ccco2)c1[N+](=O)[O-],"inconclusive [inhibitor, single point]",–
Oc1cccc2c(NC(=S)Nc3ccc(SC(F)F)cc3)cccc12,"inconclusive [inhibitor, single point]",–
O=[N+]([O-])c1cc([N+](=O)[O-])c2oc(-c3ccccc3)c(Br)c2c1O,"inconclusive [inhibitor, single point]",–
CC(C)S(=O)(=O)c1csc(NC(=O)Nc2cccc([N+](=O)[O-])c2)c1Cl,"inconclusive [inhibitor, single point]",–
Cc1ccc(C)c(CN2C(=O)c3ccccc3Sc3ccc(C(=O)NC4CCCC4)cc32)c1,–,inactive: -0.406%
